PubChem BioAssay (NCI)
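Exposure lasted 48 hours, with cells grown in 96-well plates and compounds tested at five concentrations. Abbreviation: GI50, concentration required for 50% inhibition of growth. Definition used: TGI = concentration required for complete inhibition of growth.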

Tested on: NCI-H322M lung
Assay: NCI tumour cell line growth inhibition, 48 h

How did the TGI turn out when CC(C)c1ccc2nc3ccc(C(=O)NCCN4CCN(c5ccccc5)CC4)cn3c(=O)c2c1 was run?
The TGI was > 100 µM.

How did the TGI turn out when OC(CC(O)(C(F)(F)F)C(F)(F)F)C(O)c1ccco1 (stereo not drawn) was run?
The TGI was > 10 µM.

O=C1C=C2CC[C@H]3[C@@H]4CC[C@H](OC(=O)c5cccc6cc7ccccc7nc56)[C@H]4CC[C@@H]3[C@H]2CC1 was tested. Which TGI did it give?
The TGI was > 100 µM.

Which TGI does the source give for Cn1nc2ccccc2cc1=O here?
The TGI was > 100 µM.

What does the source list for CCOCCOC[C@H]1CCCN(c2ccnc3sc(C(N)=O)c(N)c23)C1?
GI50: > 100 µM; TGI: > 100 µM

For O=C(C=Nc1ccccc1C(=O)[O-])c1cccs1.O=C(C=Nc1ccccc1C(=O)[O-])c1cccs1.[Zn+2], which TGI is on record?
The TGI was 46.3 µM.

How did the GI50 turn out when C[CH2][Sn]([CH2]C)([O]C(=O)c1ccc(F)cc1)[O][Sn]([CH2]C)([CH2]C)[O]C(=O)c1ccc(F)cc1 was run?
Its GI50 is > 100 µM.

What about the TGI of the same compound?
The TGI was > 100 µM.

Fc1c(F)c(C(F)(F)F)c(F)c(F)c1N/N=C/c1cn(Cc2ccccc2)c2ccccc12 was tested. Which TGI did it give?
The TGI was 51.6 µM.

For Nc1ncnc2c1ncn2C1OC(COC2C(CO)OC(OC(C(=O)O)C(O)C(OP(=O)(O)O)C(O)C(=O)O)C(O)C2O)C(O)C1O (stereo not drawn), which TGI is on record?
Its TGI is > 100 µM.

How did the TGI turn out when CN1N=C2c3ccccc3CC[C@H]2C1c1cccc(O)c1 (stereo partly drawn) was run?
Its TGI is > 100 µM.

Which results are given for CCN1CCN(c2ccc(Nc3ncc4ccc5ncn(C(C)C)c5c4n3)nc2)CC1?
GI50: 0.079 µM; TGI: 1.45 µM

For O=C1COCCN1C(=O)c1ccccc1Cl, which TGI is on record?
Its TGI is > 100 µM.

For O=C(/C=C/c1ccc2c(c1)OCO2)CC(=O)/C=C/c1ccc2c(c1)OCO2, which TGI is on record?
The TGI was > 100 µM.

For COc1ccc(C(c2ccc3c(c2)OCO3)N2C(=O)CCC2C(=O)O)cc1 (stereo not drawn), which TGI is on record?
The TGI was > 100 µM.

For COc1ccc2c(c1)CC[C@@H]1[C@@H]2CC[C@]2(C)C(=O)/C(=C/c3ccc(O)c(OC)c3)C[C@@H]12, which TGI is on record?
The TGI was > 100 µM.

With Cn1c(=O)n2n(c1=O)[C@@H](c1ccccc1)[C@H]2c1ccccc1 as the compound, how does the TGI read?
Its TGI is > 100 µM.

Which TGI does the source give for Cc1ccc(/C=N/NS(=O)(=O)c2ccc(/C=C3\NC(=O)NC3=O)cc2)cc1 here?
The TGI was > 100 µM.

Which TGI does the source give for O=C(c1ccccc1)C1C[C@H]2CO[C@H](c3ccccc3)N2C1=O (stereo partly drawn) here?
The TGI was > 100 µM.

What does the source list for Nc1ccc(-c2ccc(-c3nc4cc(Cl)c(Cl)cc4[nH]3)cc2)cc1?
GI50: 1.61 µM; TGI: 20.6 µM

For Cn1c(=O)c2c(nc(NCCNc3nc4c(c(=O)n(C)c(=O)n4C)n3C)n2C)n(C)c1=O, which TGI is on record?
Its TGI is > 100 µM.

How did the GI50 turn out when N#Cc1nn(-c2cc(=O)[nH]c3ccc(Br)cc23)c(N)c1C#N was run?
The GI50 was > 100 µM.

What about the TGI of the same compound?
The TGI was > 100 µM.

How did the TGI turn out when O=C1NC2C(CCO)CC=C[C@H]2c2cc3c(cc21)OCO3 (stereo partly drawn) was run?
The TGI was > 100 µM.

For COc1ccccc1NC(=O)C(CC(C(=O)Nc1ccccc1OC)/C(C)=N/NC(=O)c1ccccc1O)/C(C)=N/NC(=O)c1ccccc1O (stereo not drawn), which TGI is on record?
Its TGI is > 100 µM.

Which TGI does the source give for CC(C)(C)C(=O)/C=C/c1cccc(Oc2ccccc2)c1 here?
Its TGI is 37.1 µM.

With COc1ccc(C2S/C(=C\c3ccccc3)C(=O)N2NC(=O)Cc2ccccc2)cc1 (stereo not drawn) as the compound, how does the TGI read?
Its TGI is > 100 µM.

How did the GI50 turn out when Cc1nc2sc(C(=O)Nc3cccc(Br)c3)c(N)c2cc1C(O)c1ccccc1 (stereo not drawn) was run?
The GI50 was 2.77 µM.

And the TGI?
Its TGI is 18.9 µM.

Nc1nc(=Nc2ccccc2)ss1 was tested. Which TGI did it give?
Its TGI is > 100 µM.

How did the TGI turn out when COc1cc2c(cc1OC)-c1cc3ccc(OC)c(OC)c3c[n+]1CC2 was run?
Its TGI is > 100 µM.

With O=NN(CCCl)C(=O)N[C@H]1CCCC[C@@H]1Cl as the compound, how does the TGI read?
Its TGI is > 100 µM.

COc1ccc(C(SCC(N)C(=O)O)(c2ccc(OC)cc2)c2ccc(OC)cc2)cc1 (stereo not drawn) was tested. Which TGI did it give?
Its TGI is 24.8 µM.

How did the TGI turn out when O=C(O)c1ccc(NNC(=O)c2cccc3c(=O)c4ccccc4[nH]c23)cc1 was run?
The TGI was > 100 µM.

Which TGI does the source give for COc1cc(Nc2nc3cc(C(F)(F)F)ccc3nc2C)cc(OC)c1OC here?
Its TGI is 11.9 µM.

How did the TGI turn out when COC(=O)/C=C1/OC(c2ccc(C)cc2)=C(Cl)C1=O was run?
The TGI was 48.6 µM.

Which TGI does the source give for COc1ccc(C)cc1Nc1nnc(-c2ccc(N)cc2)s1 here?
The TGI was > 100 µM.

Which GI50 does the source give for COc1cc(/C=C2\C[C@H]3[C@@H]4CC=C5C[C@@H](OC(C)=O)CC[C@]5(C)[C@H]4CC[C@]3(C)[C@H]2OC(C)=O)ccc1OCCN1CCCCC1 here?
The GI50 was 18.8 µM.

What about the TGI of the same compound?
The TGI was > 50 µM.

For Cc1ccc(C2=NN(c3ccc(S(N)(=O)=O)cc3)C(c3cn(-c4ccccc4)nc3-c3ccccc3)C2)cc1 (stereo not drawn), which GI50 is on record?
Its GI50 is > 100 µM.

What about the TGI of the same compound?
The TGI was > 100 µM.

CC1C(O)Oc2cc3c(cc2C1c1ccccc1O)OCO3 (stereo not drawn) was tested. Which TGI did it give?
The TGI was > 100 µM.

With COc1ccc2c(c1)C(=O)c1c-2c(NCCN(C)C)nc2ccccc12 as the compound, how does the GI50 read?
Its GI50 is 4.54 µM.

What about the TGI of the same compound?
Its TGI is 19.3 µM.

CCOC(=O)c1cc(C#N)[nH]c1-c1ccsc1 was tested. Which TGI did it give?
Its TGI is > 100 µM.

CCOC(=O)NC1CC2CCC1(OC)C=C2C (stereo not drawn) was tested. Which TGI did it give?
Its TGI is > 100 µM.

What does the source list for CC(CN)[C@@H]1CC[C@]2(CO)CC[C@]3(C)[C@H](CC[C@@H]4[C@@]5(C)CCC(N)C(C)(C)[C@@H]5CC[C@]43C)[C@@H]12 (stereo partly drawn)?
GI50: 1.63 µM; TGI: 3.08 µM

What does the source list for COc1cc2c(cc1OCCCN1CCN(c3ncnc4ccccc34)CC1)N=CC1CCCN1C2=O (stereo not drawn)?
GI50: 0.145 µM; TGI: 0.665 µM

With COc1cc2c3c(n(CCCN4CCCC(O)C4)c(=O)c2cc1OC)-c1cc2c(cc1C3=O)OCO2 (stereo not drawn) as the compound, how does the GI50 read?
The GI50 was 0.819 µM.

What about the TGI of the same compound?
Its TGI is 1.75 µM.

CCN(CC)CCCCC1CCN(CC(=O)N2c3cc(Cl)ccc3NC(=O)CC2C)CC1 (stereo not drawn) was tested. Which TGI did it give?
Its TGI is > 100 µM.

How did the GI50 turn out when COc1ccc2nc3ccccc3c(NCc3ccc(C)cc3)c2c1 was run?
Its GI50 is 2.07 µM.

What about the TGI of the same compound?
Its TGI is 5.3 µM.

For N#CSc1ccc(S(N)(=O)=O)cc1, which TGI is on record?
Its TGI is > 100 µM.

CCN(CC)CC[n+]1cc2cc(OC)c(OC)cc2c2ccc3cc4c(cc3c21)OCO4 was tested. Which GI50 did it give?
The GI50 was 0.447 µM.

And the TGI?
Its TGI is 2.12 µM.

With O=C(Cc1ccccc1)NS(=O)(=O)c1ccccc1 as the compound, how does the TGI read?
The TGI was > 100 µM.

How did the TGI turn out when Cc1cn(C2CC(NC(=NCC3OC(n4cnc5c(N)ncnc54)CC3O)NC#N)C(CO)O2)c(=O)[nH]c1=O (stereo not drawn) was run?
Its TGI is > 100 µM.
